{"source": "PubChem BioAssay AID1347165", "about": "(National Center for Advancing Translational Sciences (NCATS), 2019)", "note": "The campaign covered roughly 220,000 compounds. About 5,700 (2.6%) were called active. Inconclusive results, whose numbers are uncertain, are shown with a selection of clear calls. Calls follow the shape of the dose curve; as a rule, active = well fitted inhibition curve with a large enough effect; inconclusive = small, poorly fitted or top-dose-only effect; inactive = no such curve, though single readings can be large or run the other way. Where the call is inconclusive, the potency comes from a doubtful curve fit. Potency is read from the fitted curve at half-maximal effect; tags tell the direction and shape of the fitted curve."}
{"target": "Lysine-specific demethylase 5B (Homo sapiens) (UniProt Q9UGL1)", "sequence (Q9UGL1 whole entry, looked up)": "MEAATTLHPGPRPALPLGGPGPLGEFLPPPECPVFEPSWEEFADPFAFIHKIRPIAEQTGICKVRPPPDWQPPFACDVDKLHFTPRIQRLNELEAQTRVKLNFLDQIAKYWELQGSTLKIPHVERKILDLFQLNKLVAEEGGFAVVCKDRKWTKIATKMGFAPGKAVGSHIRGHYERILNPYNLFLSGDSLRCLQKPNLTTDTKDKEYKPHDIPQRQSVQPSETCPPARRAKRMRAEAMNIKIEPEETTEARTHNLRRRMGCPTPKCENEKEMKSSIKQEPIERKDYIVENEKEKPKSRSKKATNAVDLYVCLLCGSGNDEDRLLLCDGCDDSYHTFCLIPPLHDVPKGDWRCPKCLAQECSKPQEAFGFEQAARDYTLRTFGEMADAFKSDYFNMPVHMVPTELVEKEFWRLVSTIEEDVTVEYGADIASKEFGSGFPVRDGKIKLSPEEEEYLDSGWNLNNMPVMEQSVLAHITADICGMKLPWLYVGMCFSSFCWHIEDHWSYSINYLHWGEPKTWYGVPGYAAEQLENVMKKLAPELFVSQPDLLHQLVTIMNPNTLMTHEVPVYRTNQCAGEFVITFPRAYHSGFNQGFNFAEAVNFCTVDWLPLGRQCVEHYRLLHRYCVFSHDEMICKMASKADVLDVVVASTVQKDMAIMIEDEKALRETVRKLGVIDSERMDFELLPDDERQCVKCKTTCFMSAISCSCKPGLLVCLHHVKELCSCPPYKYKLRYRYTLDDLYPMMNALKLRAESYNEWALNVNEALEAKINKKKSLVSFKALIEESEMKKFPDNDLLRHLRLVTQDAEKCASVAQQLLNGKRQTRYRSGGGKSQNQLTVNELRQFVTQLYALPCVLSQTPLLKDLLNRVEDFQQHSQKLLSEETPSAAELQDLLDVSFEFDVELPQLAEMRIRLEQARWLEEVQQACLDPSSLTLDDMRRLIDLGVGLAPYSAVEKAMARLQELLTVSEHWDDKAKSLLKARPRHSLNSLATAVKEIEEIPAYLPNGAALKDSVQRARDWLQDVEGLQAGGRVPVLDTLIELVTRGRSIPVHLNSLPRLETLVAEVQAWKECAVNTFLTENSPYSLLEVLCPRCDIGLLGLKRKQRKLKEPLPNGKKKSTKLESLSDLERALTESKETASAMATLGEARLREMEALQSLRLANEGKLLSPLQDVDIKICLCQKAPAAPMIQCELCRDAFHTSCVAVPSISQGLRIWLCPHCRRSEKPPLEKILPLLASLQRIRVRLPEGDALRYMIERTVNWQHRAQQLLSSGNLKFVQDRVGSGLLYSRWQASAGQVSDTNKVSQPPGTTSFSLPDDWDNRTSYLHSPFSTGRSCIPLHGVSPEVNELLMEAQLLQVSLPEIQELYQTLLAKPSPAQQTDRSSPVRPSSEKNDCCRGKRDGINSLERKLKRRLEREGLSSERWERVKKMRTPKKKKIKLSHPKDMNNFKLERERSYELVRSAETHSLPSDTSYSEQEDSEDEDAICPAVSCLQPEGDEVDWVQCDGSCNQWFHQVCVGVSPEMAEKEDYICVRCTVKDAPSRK", "test": "Primary screen for KDM5B Histone Demethylases FDH-coupled qHTS; also: nearly all actives have a fitted effect of over 70% in size; as to activity change, negative = inhibition: 0% is about no effect", "details": "FDH-coupled NADH fluorescence (FDH is formaldehyde dehydrogenase); activity change, negative = inhibition: at 57.7 µM (top of the series) unless noted", "how_it_was_run": "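Here, H3K4me3 peptide (12.5 µM in substrate mix) is demethylated by KDM5BΔAP, 200 nM final, after 10 min compound exposure. Formaldehyde product is coupled through FDH (0.25 U/mL in mix) to NADH fluorescence; 30-min ΔRFU feeds dose-response curves.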"}
{"smiles": "N#Cc1c(-c2ccccc2)cc(-c2cccs2)nc1SCCS(=O)(=O)c1nc2ccccc2s1", "Potency": "inconclusive: 25.1 µM [inhibitor, partial curve, poor fit]"}
{"smiles": "Cn1cc(CN2Cc3c(cc(N4CCOCC4)nc3-c3cccnc3)C2=O)cn1", "Potency": "active: 35.5 µM"}
{"smiles": "Cc1cc(C)nc(N2CCN(C(=O)C3CC(=O)N(CC(C)C)C3)CC2)n1", "note": "(stereo not given)", "Potency": "inconclusive: 25.1 µM [inhibitor, single point]"}
{"smiles": "COc1ccc(CCNC(=O)CCc2c(C)c3cc4c(C)c(C)oc4cc3oc2=O)cc1", "Potency": "inconclusive: 14.1 µM [inhibitor, partial curve, poor fit]"}
{"smiles": "C=C(C)Cn1c(NCCCOCC)nc2c1c(=O)[nH]c(=O)n2C", "activity change, negative = inhibition": "inactive: 10.2%"}
{"smiles": "O=C(CC1C(=O)NCCN1Cc1ccoc1)NCc1nnc2n1CCCCC2", "note": "(stereo not given)", "Potency": "inconclusive: 15.8 µM [inhibitor, single point]"}
{"smiles": "COc1c(CNCc2nnc3n2CCCCC3)c(C(C)C)nn1C", "activity change, negative = inhibition": "inactive: -17%"}
{"smiles": "CCn1c(C(=O)Nc2cc(Cl)ccc2C)cc2sc(Cl)cc21", "Potency": "inconclusive: 39.8 µM [inhibitor, single point]"}
{"smiles": "CCOC(=O)C(C)On1c(-n2nc(C)cc2C)nc2ccccc2c1=O", "note": "(stereo not given)", "activity change, negative = inhibition": "inactive: 5.61%"}
{"smiles": "Cc1ccc(-c2nc3ccc(Cl)cn3c2Nc2ccc3c(c2)OCCO3)s1", "Potency": "inconclusive: 4.47 µM [inhibitor, partial curve, poor fit]"}
{"smiles": "Cc1ccc(Nc2nc(CSc3nnnn3C3CC3)cs2)cc1", "activity change, negative = inhibition": "inactive: -7.58%"}
{"smiles": "Cc1ccccc1-c1[nH]nc2ncc(-c3ccccc3)nc12", "Potency": "inconclusive: 35.5 µM [inhibitor, partial curve, poor fit]"}
{"smiles": "CC(C)COc1ccc(C(=O)N2CCN(CCc3ccccn3)CC2)cc1", "Potency": "inconclusive: 44.7 µM [inhibitor, single point]"}
{"smiles": "COc1ccc2c(c1)cc(C(=O)Nc1ccc(F)cc1F)n2C", "activity change, negative = inhibition": "inactive: -16.7%"}
{"smiles": "O=C(c1cc2ccccc2o1)N1CCC2(CCCN(Cc3ccccc3F)C2)C1", "note": "(stereo not given)", "Potency": "inconclusive: 4.47 µM [inhibitor, partial curve, poor fit]"}
{"smiles": "Cc1cc(OC(C)C(=O)NCCCN2CCOCC2)c2c(C)c(C)c(=O)oc2c1", "note": "(stereo not given)", "Potency": "inconclusive: 20 µM [inhibitor, partial curve, poor fit]"}
{"smiles": "Cc1nc(C)c(C(=O)N2CCC(c3noc(-c4cnccn4)n3)C2)s1", "note": "(stereo not given)", "activity change, negative = inhibition": "inactive: 7.43%"}
{"smiles": "COc1cc2[nH]c(=O)n(CCCCCC(=O)NCCc3ccccc3)c(=O)c2cc1OC", "Potency": "inconclusive: 2 µM [inhibitor, full curve, poor fit]"}
{"smiles": "CCNc1c(NC(=O)NCc2ccc(C)cc2)c(=O)oc2ccccc12", "activity change, negative = inhibition": "inactive: 8.71%"}
{"smiles": "CCc1cnc(C)nc1-c1cc(NCc2ccccn2)nc2[nH]ccc12", "Potency": "inconclusive: 22.4 µM [inhibitor, single point]"}
{"smiles": "Fc1ccc(-c2ccc(CNCCSc3nnnn3-c3ccccc3)o2)cc1Cl", "activity change, negative = inhibition": "inconclusive: -36.2% [inhibitor]"}
{"smiles": "CCN1Cc2nc(OC)c(CNC(=O)C(C)n3cc(C)cn3)cc2C1=O", "note": "(stereo not given)", "Potency": "inconclusive: 25.1 µM [inhibitor, partial curve]"}
{"smiles": "O=C(Nc1c(C(=O)Nc2cccc(F)c2)oc2ccccc12)c1cc2ccccc2o1", "Potency": "inconclusive: 28.2 µM [inhibitor, partial curve, poor fit]"}
{"smiles": "CC(C)Nc1ncnc2c1CN(C1CCNC1)C(=O)CN2C", "note": "(stereo not given)", "Potency": "inconclusive: 50.1 µM [inhibitor, partial curve, poor fit]"}
{"smiles": "COCC(=O)N1CCCN(C(=O)CSc2ccncc2)CC1", "Potency": "inconclusive: 14.1 µM [inhibitor, partial curve, poor fit]"}
{"smiles": "Fc1cccc(CN2CCNc3cnc(OCc4cccnc4)cc3C2)c1", "Potency": "inconclusive: 28.2 µM [inhibitor, partial curve, poor fit]"}
{"smiles": "COc1ccc(NC(=O)c2ccc3c(c2)N(S(C)(=O)=O)CC3)cc1Cl", "Potency": "inconclusive: 39.8 µM [inhibitor, single point]"}
{"smiles": "CNC(=O)[C@@H](c1ccc(OC)cc1)N1CCC[C@H]1C(=O)NC1CCCC1", "Potency": "inconclusive: 8.91 µM [inhibitor, single point]"}
{"smiles": "COC(=O)[C@@H]1Cc2ncn(Cc3ccc(Cl)cc3)c2CN1C(=O)c1ccco1", "Potency": "inconclusive: 35.5 µM [inhibitor, partial curve, poor fit]"}
{"smiles": "Cc1cc(NC(=O)C(C)OC(=O)c2cc3c(s2)CCC3)no1", "note": "(stereo not given)", "Potency": "inconclusive: 28.2 µM [inhibitor, single point]"}
{"smiles": "CCOCCn1c(=O)[nH]c2cc(C(=O)NCc3nnc(C)o3)ccc21", "Potency": "inconclusive: 28.2 µM [inhibitor, single point]"}
{"smiles": "Cc1ccc(OCc2ccc(-c3nc(C#N)c(N4CCC(C(N)=O)CC4)o3)o2)cc1", "Potency": "inconclusive: 1.78 µM [inhibitor, full curve, poor fit]"}
{"smiles": "Cc1ccc2nsnc2c1S(=O)(=O)O", "Potency": "inconclusive: 31.6 µM [inhibitor, single point]"}
{"smiles": "CNC(=O)Nc1ccc(C)n(CC(=O)NCc2ccc(Cl)cc2)c1=O", "Potency": "inconclusive: 22.4 µM [inhibitor, single point]"}
{"smiles": "COc1cccc(NC(=O)C2CCCN2S(=O)(=O)c2ccc3c(c2)C(C)(C)C(=O)N3C)c1", "note": "(stereo not given)", "Potency": "inconclusive: 14.1 µM [inhibitor, partial curve, poor fit]"}
{"smiles": "CC(C)c1nc(NCCO)c(C#N)c2c1CCCC2", "Potency": "inconclusive: 31.6 µM [inhibitor, partial curve, poor fit]"}
{"smiles": "Cc1nc2scc(CC(=O)NC(C)C)n2c(=O)c1-c1cc(C)n(-c2ccc(C(C)C)cc2)n1", "Potency": "inconclusive: 28.2 µM [inhibitor, partial curve, poor fit]"}
{"smiles": "CC(C)c1ccc2oc(-c3cccc(NC(=O)c4ccc5c(c4)OCCO5)c3)nc2c1", "Potency": "inconclusive: 3.55 µM [inhibitor, partial curve, poor fit]"}
{"smiles": "COc1ccc(C)cc1Nc1nc(-c2ccc(OC)c(OC)c2)no1", "Potency": "inconclusive: 31.6 µM [inhibitor, partial curve]"}
{"smiles": "O=C(NCc1nnc2c(-c3nc(C4CC4)no3)cccn12)c1cccc(F)c1", "Potency": "active: 25.1 µM"}
